Laboratory results reported in the supplement of paper PMC10126150.
Sequences with one replicate were seen in a single cluster, so their values are uncertain.

Test system: ATP
Test: switch fluorescence ratio, 500 uM ATP over buffer (Cy3 cluster intensity, sum of 5 cycles each) (fold (ratio)); higher = stronger signal-on switching upon ATP binding; sequences stand for … in TCGTCGGCAGCGTCAGATGTGTATAAGAGACAGTTTTTTTTTTTTTTTTTTTTTTTTT…TC
Conditions: aptamer strand: ATP DNA aptamer (quencher-CACCTGGGGGAGTATTGCGGAGGAAGG + anchor), 100 nM annealed; ATP concentration: 500 uM; one replicate
Procedure, shortened: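 After annealing to 100 nM quencher-labelled ATP aptamer, Cy3-labelled switching-strand clusters on a modified Illumina MiSeq flow-cell were imaged in selection buffer. A second image followed after 15 min with 500 uM ATP at 22 °C, and five such buffer/ATP cycles were done, each separated by NaOH stripping and re-annealing. The fluorescence ratio, averaged per switch-domain sequence, is summed target-cycle over summed buffer-cycle Cy3 intensity per cluster, with clusters outside 100-1000 RFU excluded.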
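Note: ATP exposure 15 min at 22 °C before imaging.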

| Sequence | switch fluorescence ratio |
| --- | --- |
| CCGGGCCCCT | 1.02 |
| ACTCAAAGCT | 1.21 |
| AAAGGATTAG | 1 |
| TTGAAATGGG | 1.04 |
| ACATCTAAAA | 0.973 |
| CTAATCATAT | 0.958 |
| CACGACGGTT | 1.09 |
| TGAATTCA | 0.969 |
| TGTGGGCTTG | 0.979 |
| GATTACCTGT | 0.997 |
| CTTTGCGGCA | 1.02 |
| AATTGGAGCA | 1 |
| GACCTTTGGC | 1.04 |
| AATGCGGTGG | 1.03 |
| CCTACAGATT | 1.03 |
| TGGTTGCGCG | 0.993 |
| GACCCAGTTG | 1.3 |
| GGTTCATTGA | 1.05 |
| AGTATTCGAG | 0.999 |
| ACTCGTGG | 0.974 |
| ATTGATATCT | 1.03 |
| TAGAGGCACG | 1.02 |
| TCGGCTGTGA | 0.975 |

| Sequence | switch fluorescence ratio |
| --- | --- |
| CTTCTCTATT | 0.967 |
| ACTGGAGATA | 1.01 |
| GAAGGTCATG | 1.03 |
| TTTCTTCAAC | 1.14 |
| GGTCGCCCTC | 1.01 |
| TAAGGCAAGA | 1.09 |
| GGTGTAAGGC | 1.02 |
| AATCGGTCAG | 0.981 |
| TCCATGGTTC | 0.988 |
| GCAATCTCAA | 2.23 |
| CGACGAGGTT | 1.11 |
| TAGGTCAACT | 1.01 |
| GGACACGACA | 1.19 |
| TATGTGCAGC | 0.99 |
| TAGCGTCCCG | 0.939 |
| TATCAGGCTA | 1 |
| CAATTTAAGT | 1.01 |
| CGTTACGAAA | 1.04 |
| TAGGCAGTAA | 1.04 |
| CTTTTCTGT | 1.01 |
| CCCTGACCTA | 1.1 |
| GTCATTCTAC | 0.994 |
| TTTTGACG | 1.07 |

| Sequence | switch fluorescence ratio |
| --- | --- |
| ATCAAAGGCC | 0.971 |
| ATCTTAAACA | 0.973 |
| TGCACTTTGT | 0.965 |
| GAATTACGCA | 1.14 |
| TAGTCTGTCA | 0.963 |
| GATCTCCCGC | 1.64 |
| CTTTTCCAA | 1.15 |
| TGAGAATTGC | 1.02 |
| ACTATACGAA | 1.22 |
| TTTTTTACAC | 1.05 |
| AGTGCAATCT | 1.05 |
| TCTTACACGG | 1.02 |
| AGAGGGGCGA | 0.964 |
| GCCGTAGCGC | 1.09 |
| ACGGCTTCAG | 0.976 |
| TTTTGTTCTC | 0.965 |
| TGATCCCCGG | 1.08 |
| ACGAAGTGC | 1.06 |
| CTCGTTTCCC | 1.04 |
| CGACGGCCAG | 1.05 |
| AAGGTTTCTT | 1 |
| GCTGCTAGTT | 1.08 |
| ATCACGGGTG | 1.54 |

| Sequence | switch fluorescence ratio |
| --- | --- |
| CCACCTGGCA | 1.21 |
| ACCATCGCCC | 1.08 |
| GTGAACGGTT | 1.01 |
| CATATGATGG | 0.991 |
| GATAAACGTA | 0.989 |
| AGGGATCGGA | 0.99 |
| ATCGAGGCAA | 4.88 |
| CGATGGTGTA | 0.988 |
| GGGAGTAGAG | 0.993 |
| TTCACTTCGG | 1.01 |
| ACTAGAGCAA | 1.36 |
| ATATCGTCCT | 0.997 |
| CGTGATGCTT | 1.03 |
| ATATCGCGGT | 0.988 |
| ATCGATATGG | 1.01 |
| CGCTATCGTG | 1.09 |
| TCAAAAAAAA | 0.998 |
| CCACCTCAAC | 2.39 |
| GTTTAATGAC | 0.96 |
| TGACCGTGGT | 1 |
| GGGGCCATTA | 0.983 |
| AACGCAGGCG | 1 |
| ACGCGCGAAT | 0.997 |

| Sequence | switch fluorescence ratio |
| --- | --- |
| TCTTCGTTGA | 0.985 |
| ATTTCTTTCC | 1.18 |
| TCGTAGTCGC | 0.986 |
| CCTGCTAGA | 1.16 |
| GGTTCAGATC | 1 |
| GATGACTGCT | 0.988 |
| AGGCGGGTG | 1.02 |
| CAATCTCGAG | 0.998 |
| ACATATGGAG | 1 |
| AGATATCGAG | 0.98 |
| GGCCTGTTCG | 0.984 |
| AGGTAACGT | 0.97 |
| CACATGACCG | 1.09 |
| CGCCATTCGA | 1.05 |
| ATCGTCTCAA | 1 |
| AAAGCAAATC | 1.64 |
| CCGCGTTAA | 3.06 |
| TGGCATAGT | 0.98 |
| CGACGTTTTA | 1.17 |
| CCGGGTACAA | 1.79 |
| CCGTCGCGTT | 1.63 |
| ATTAGCCTTG | 1.04 |
| AATGAATGG | 0.977 |

| Sequence | switch fluorescence ratio |
| --- | --- |
| AGAGGTACAG | 1.03 |
| TTGTATGGAG | 0.962 |
| ATGGGCTCTA | 0.992 |
| ATGATTATTT | 0.983 |
| CTACTCGGCG | 1.16 |
| TAAATTACG | 1.09 |
| GTAAAAATAG | 1.42 |
| AGGTCCGTTG | 0.999 |
| TTTGGTCAA | 0.994 |
| AACGAAGAGC | 0.986 |
| CACAGGAGAC | 1.05 |
| CTATAGAGTC | 0.99 |
| CCGGGGATCT | 1.08 |
| GAGTAATGAA | 1.02 |
| CGAATTTACT | 0.987 |
| AAATGTATGC | 1.02 |
| CGAATTTCCA | 1.01 |
| GGCCGGGCAC | 0.994 |
| TAACGGTAAG | 1.02 |
| ACCCCAGTTA | 1.2 |
| TCCGATGCCA | 3.05 |
| AGTATGGTCT | 1.02 |
| CTGGAATAT | 1.11 |

| Sequence | switch fluorescence ratio |
| --- | --- |
| TTACTGGAGC | 0.985 |
| AGGAACAAAT | 1.02 |
| GACGTTGGCG | 1.05 |
| CACCAAGTAT | 0.983 |
| AGGCCCGACT | 0.977 |
| TCTTAGCTGC | 2.97 |
| TATGGGATGA | 1.04 |
| TAATGCAACC | 1.48 |
| AAGCTGGTGC | 0.977 |
| AATTAGGTT | 0.947 |
| ATTTCCTTAC | 1.53 |
| TAAATGAGCA | 0.955 |
| GGGCGACCGA | 0.961 |
| TGCGGCAGCC | 0.998 |
| CCCTACTTCA | 1.07 |
| GACTCTTTGC | 1.07 |
| TAGCGGATG | 0.976 |
| ATCCCTACTT | 0.99 |
| AACGTCTATC | 1.02 |
